# Results reported in the supplement of paper PMC8728848.
# The other results are listed elsewhere or left out.
# B1: PX9961U-pdi-543-24-543 (Parabacteroides distasonis) (protein)
# chain: EEPVGEFLPGQVESEENIEGIVTGAYAVLDGYYASDAINSGCSNWQFGDVVSDDAYKGGGGTGDQNQIHLMEIFNANPTGIDFEARWAALYEGIKRCNQAIRLLNGSEVKNKEQRLAEMRFLRGHYYFNLKIIYNQIPWIDETLVDPNEYNKKSNIEFSSDQLWEKILEEFSAAYKVLPESQADYGRPTKMAARAYMAKVYLYQSKWKECLEACDEVIQSGKYELFPDFRNVFLPENDNCSEIIFAIQLSINDGSPNNENGSYGDRLLPPGGPYPVYGFLRPTQNLVNAYKTDVKGLPYNDGKDVSENDYVDVRLDHTLARPNIPFMDVQLYDWTPREASVYGPYSPKKRLVSLNSTYYSPIWPYVNALNFYVIRYADLLLWRAEAAIETGDLETGRKYINMIRERAKNTQHVKTMDQSQDAANYKVGVYDEPFKSKNEAVQALRMERRLEMAHEGIRFFDLVRWGVADEVINAYIAKEKVFRSHLQNAHFVKGKHEYFPIPQSMIDICGTEVMKQNPGY
# How the values were obtained:
# Assay in all cases: glycan array binding signal (z-score within array); higher = stronger binding
# Details in all cases: glycan notation: IUPAC condensed, linker removed
# Gal3S(b1-4)Glc = target: Gal3S(b1-4)Glc
# Method in brief: (§1)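 Glycan array data came from 3228 arrays in the Consortium for Functional Glycomics database, and only arrays with an available protein sequence were kept. Glycan names were put into IUPAC-condensed notation, and columns mapping to the same glycan were averaged. The binding signal is a within-array Z-score, averaged across arrays of one protein sequence run at different concentrations or buffers and across linkers. A negative Z-score can be read as non-binding.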
# Gal3S(b1-4)Glc6S = target: Gal3S(b1-4)Glc6S
# Method in brief: as §1
# Gal3S(b1-4)GlcNAc = target: Gal3S(b1-4)GlcNAc
# Method in brief: as §1
# [1] = target: Gal3S(b1-4)[Fuc(a1-3)]Glc6S
# Method in brief: as §1
# [2] = target: Gal3S(b1-4)[Fuc(a1-3)]GlcNAc
# Method in brief: as §1
# [3] = target: Gal3S(b1-4)[Fuc(a1-3)]GlcNAc6S
# Method in brief: as §1
# Gal3S4S(b1-4)GlcNAc = target: Gal3S4S(b1-4)GlcNAc
# Method in brief: as §1
# Gal3S6S(b1-4)GlcNAc = target: Gal3S6S(b1-4)GlcNAc
# Method in brief: as §1
# Gal3S6S(b1-4)GlcNAc6S = target: Gal3S6S(b1-4)GlcNAc6S
# Method in brief: as §1
# Gal4S(b1-4)GlcNAc = target: Gal4S(b1-4)GlcNAc
# Method in brief: as §1
# Gal4S6S(b1-4)GlcNAc = target: Gal4S6S(b1-4)GlcNAc
# Method in brief: as §1
# Gal6P(b1-4)GlcNAc = target: Gal6P(b1-4)GlcNAc
# Method in brief: as §1
# Gal6S(b1-3)GlcNAc = target: Gal6S(b1-3)GlcNAc
# Method in brief: as §1
# Gal6S(b1-3)GlcNAc6S = target: Gal6S(b1-3)GlcNAc6S
# Method in brief: as §1
# Gal6S(b1-4)Glc = target: Gal6S(b1-4)Glc
# Method in brief: as §1
# Gal6S(b1-4)Glc6S = target: Gal6S(b1-4)Glc6S
# Method in brief: as §1
# Gal6S(b1-4)GlcNAc = target: Gal6S(b1-4)GlcNAc
# Method in brief: as §1
# Gal6S(b1-4)GlcNAc6S = target: Gal6S(b1-4)GlcNAc6S
# Method in brief: as §1
# GalNAc(a1-3)Gal = target: GalNAc(a1-3)Gal
# Method in brief: as §1
# GalNAc(a1-3)GalNAc = target: GalNAc(a1-3)GalNAc
# Method in brief: as §1
# [4] = target: GalNAc(a1-3)GalNAc(b1-3)Gal(a1-4)Gal(b1-4)Glc
# Method in brief: as §1
# [5] = target: GalNAc(a1-3)GalNAc(b1-3)Gal(a1-4)Gal(b1-4)GlcNAc
# Method in brief: as §1
# GalNAc(b1-3)Gal = target: GalNAc(b1-3)Gal
# Method in brief: as §1
# [6] = target: GalNAc(b1-3)Gal(a1-4)Gal(b1-4)GlcNAc
# Method in brief: as §1
# [7] = target: GalNAc(b1-3)Gal(a1-4)Gal(b1-4)GlcNAc(b1-3)Gal(b1-4)Glc
# Method in brief: as §1
# [8] = target: GalNAc(b1-3)Gal(a1-6)Gal(b1-4)Glc
# Method in brief: as §1
# GalNAc(b1-3)GalNAc = target: GalNAc(b1-3)GalNAc
# Method in brief: as §1
# GalNAc(b1-3)GlcNAc = target: GalNAc(b1-3)GlcNAc
# Method in brief: as §1
# GalNAc(b1-4)Gal(b1-4)Glc = target: GalNAc(b1-4)Gal(b1-4)Glc
# Method in brief: as §1
# GalNAc(b1-4)GlcNAc = target: GalNAc(b1-4)GlcNAc
# Method in brief: as §1
# [9] = target: GalNAc(b1-4)GlcNAc(b1-2)Man
# Method in brief: as §1
# [10] = target: GalNAc(b1-4)GlcNAc(b1-2)Man(a1-3)[GalNAc(b1-4)GlcNAc(b1-2)Man(a1-6)]Man(b1-4)GlcNAc(b1-4)GlcNAc
# Method in brief: as §1
# [11] = target: GalNAc(b1-4)GlcNAc(b1-3)GalNAc(b1-4)GlcNAc
# Method in brief: as §1
# GalNAc(b1-4)GlcNAc6S = target: GalNAc(b1-4)GlcNAc6S
# Method in brief: as §1
# GalNAc(b1-6)GalNAc = target: GalNAc(b1-6)GalNAc
# Method in brief: as §1
# GalNAc3S(b1-4)GlcNAc = target: GalNAc3S(b1-4)GlcNAc
# Method in brief: as §1
# GalNAc3S(b1-4)GlcNAc3S = target: GalNAc3S(b1-4)GlcNAc3S
# Method in brief: as §1
binder,measurement,setting,value
B1,glycan array binding signal (z-score),Gal3S(b1-4)Glc,-0.289
same,glycan array binding signal (z-score),Gal3S(b1-4)Glc6S,-0.356
same,glycan array binding signal (z-score),Gal3S(b1-4)GlcNAc,-0.348
same,glycan array binding signal (z-score),[1],0.065
same,glycan array binding signal (z-score),[2],-0.303
same,glycan array binding signal (z-score),[3],-0.27
same,glycan array binding signal (z-score),Gal3S4S(b1-4)GlcNAc,-0.37
same,glycan array binding signal (z-score),Gal3S6S(b1-4)GlcNAc,-0.299
same,glycan array binding signal (z-score),Gal3S6S(b1-4)GlcNAc6S,-0.332
same,glycan array binding signal (z-score),Gal4S(b1-4)GlcNAc,-0.452
same,glycan array binding signal (z-score),Gal4S6S(b1-4)GlcNAc,-0.394
same,glycan array binding signal (z-score),Gal6P(b1-4)GlcNAc,-0.41
same,glycan array binding signal (z-score),Gal6S(b1-3)GlcNAc,-0.416
same,glycan array binding signal (z-score),Gal6S(b1-3)GlcNAc6S,-0.387
same,glycan array binding signal (z-score),Gal6S(b1-4)Glc,0.317
same,glycan array binding signal (z-score),Gal6S(b1-4)Glc6S,-0.286
same,glycan array binding signal (z-score),Gal6S(b1-4)GlcNAc,-0.03
same,glycan array binding signal (z-score),Gal6S(b1-4)GlcNAc6S,0.185
same,glycan array binding signal (z-score),GalNAc(a1-3)Gal,-0.221
same,glycan array binding signal (z-score),GalNAc(a1-3)GalNAc,-0.455
same,glycan array binding signal (z-score),[4],-0.366
same,glycan array binding signal (z-score),[5],-0.277
same,glycan array binding signal (z-score),GalNAc(b1-3)Gal,-0.489
same,glycan array binding signal (z-score),[6],0.664
same,glycan array binding signal (z-score),[7],0.108
same,glycan array binding signal (z-score),[8],-0.274
same,glycan array binding signal (z-score),GalNAc(b1-3)GalNAc,-0.426
same,glycan array binding signal (z-score),GalNAc(b1-3)GlcNAc,-0.405
same,glycan array binding signal (z-score),GalNAc(b1-4)Gal(b1-4)Glc,-0.303
same,glycan array binding signal (z-score),GalNAc(b1-4)GlcNAc,0.049
same,glycan array binding signal (z-score),[9],-0.203
same,glycan array binding signal (z-score),[10],-0.253
same,glycan array binding signal (z-score),[11],0.352
same,glycan array binding signal (z-score),GalNAc(b1-4)GlcNAc6S,-0.343
same,glycan array binding signal (z-score),GalNAc(b1-6)GalNAc,-0.394
same,glycan array binding signal (z-score),GalNAc3S(b1-4)GlcNAc,-0.449
same,glycan array binding signal (z-score),GalNAc3S(b1-4)GlcNAc3S,-0.323
